Test results from patent US20260258111A1 (SUZHOU YOUTHEN BIOTECHNOLOGY, published 2026).

How the values were obtained:
[1] = biological target: T1, TRAIL (Novoprotein Scientific Inc.) (UniProt P50591 114-281, limits assumed); assay: cell-based or functional assay
[2] = biological target: T2, human TRAIL (human, UniProt P50591 114-281, limits assumed); assay: Biacore (SPR), fusion protein as ligand, hTRAIL
T2 construct: also called hTRAIL; TRAIL molecule

[3] = biological target: T1, TRAIL (Novoprotein Scientific Inc.); assay: cell-based or functional assay; remark: listed apart in the source
T1 sequence (P50591 114-281 limits assumed): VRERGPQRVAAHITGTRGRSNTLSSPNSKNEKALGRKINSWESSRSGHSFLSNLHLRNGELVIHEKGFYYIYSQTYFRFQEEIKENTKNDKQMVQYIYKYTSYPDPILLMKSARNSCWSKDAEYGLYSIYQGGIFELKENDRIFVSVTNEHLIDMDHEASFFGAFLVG

B1: YF01M3G1m (Fc fusion)
chain: ITQQDLAPQQRAAPQQKRSSPSEGLCPPGHHISEDGRDCISCKYGQDYSTHWNDLLFCAACTRCDSGEVELSPCTTTRNTVCQCEEGTFREEDSPEMCRKCRTGCPRGMVKVGDCTPWSDIECVHKEEF[no letters for human IgG1 Fc with D265A (EU numbers)]
[1]
  apoptosis rate (%) of Jurkat cells with 200 ng/ml TRAIL plus fusion protein (0.125 mg/ml per paragraph 187); TRAIL alone 18.42, Normal 2.57: 9.83%

B2: YF01M3G4 (Fc fusion)
chain: ITQQDLAPQQRAAPQQKRSSPSEGLCPPGHHISEDGRDCISCKYGQDYSTHWNDLLFCAACTRCDSGEVELSPCTTTRNTVCQCEEGTFREEDSPEMCRKCRTGCPRGMVKVGDCTPWSDIECVHKEEF[no letters for human IgG4 Fc with S228P (EU numbers)]
[1]
  apoptosis rate (%) of Jurkat cells with 200 ng/ml TRAIL plus fusion protein (0.125 mg/ml per paragraph 187); TRAIL alone 18.42, Normal 2.57: 9.45%

B3: YF01M3 (Fc fusion)
chain: ITQQDLAPQQRAAPQQKRSSPSEGLCPPGHHISEDGRDCISCKYGQDYSTHWNDLLFCAACTRCDSGEVELSPCTTTRNTVCQCEEGTFREEDSPEMCRKCRTGCPRGMVKVGDCTPWSDIECVHKEEF[no letters for human IgG1 Fc]
notes: also called M3 fused with human IgG1-Fc; M3-1 (probably)
[1]
  apoptosis rate (%) of Jurkat cells with 200 ng/ml TRAIL plus fusion protein (0.125 mg/ml per paragraph 187); TRAIL alone 18.42, Normal 2.57: 9.39%
[2]
  koff: 8.35e-05 s⁻¹

B4: YF01M65 (Fc fusion)
chain: ITQQDLAPQQRAAPQQKRSSPSEGLCPPGHHISEDGRDCISCKYGQDYSTHWNDLLFCSSCTRCDSGEVELSPCTTTRNTVCQCEEGTFREEDSPEMCRKCRTGCPRGMVKVGDCTPWSDIECVHKEEF[no letters for human IgG1 Fc]
[3]
  apoptosis rate (%) of Jurkat cells with 200 ng/ml TRAIL plus fusion protein; TRAIL alone 27.2, Normal 3.86: 6.88%

B5: YF01M63 (Fc fusion)
chain: ITQQDLAPQQRAAPQQKRSSPSEGLCPPGHHISEDGRDCISCKYGQDYSTHWNDLLFCVVCTRCDSGEVELSPCTTTRNTVCQCEEGTFREEDSPEMCRKCRTGCPRGMVKVGDCTPWSDIECVHKEEF[no letters for human IgG1 Fc]
[3]
  apoptosis rate (%) of Jurkat cells with 200 ng/ml TRAIL plus fusion protein; TRAIL alone 27.2, Normal 3.86: 8.51%

B6: YF01M5 (Fc fusion)
chain: ITQQDLAPQQRAAPQQKRSSPSEGLCPPGHHISEDGRDCISCKYGQDYSTHWNDLLFCLRCTRCDSGEVELSPCTTTRNTVCQCEEGTFREEDSPEMCAACRTGCPRGMVKVGDCTPWSDIECVHKEEF[no letters for human IgG1 Fc]
notes: also called M5 fused with human IgG1-Fc
[2]
  Kd: 0.329 nM
  koff: 0.000131 s⁻¹

B7: YF01M36 (Fc fusion)
chain: ITQQDLAPQQRAAPQQKRSSPSEGLCPPGHHASQSGRDCISCKYGQDYSSHWNSLLFCVRCTRCDSGEVELSPCTTTRNTVCQCEEGTFREEKSPEMCRKCRTGCPRGMVKVGDCTPWSDIECVHKEEF[no letters for human IgG1 Fc]
[3]
  apoptosis rate (%) of Jurkat cells with 200 ng/ml TRAIL plus fusion protein; TRAIL alone 27.2, Normal 3.86: 8.1%

B8: YF01M16 (Fc fusion)
chain: ITQQDLAPQQRAAPQQKRSSPSEGLCPPGHHASESGRDCISCKYGQDYSNHWNSLLFCVRCTRCDSGEVELSPCTTTRNTVCQCEEGTFRESDSPEMCRKCRTGCPRGMVKVGDCTPWSDIECVHKEEF[no letters for human IgG1 Fc]
[3]
  apoptosis rate (%) of Jurkat cells with 200 ng/ml TRAIL plus fusion protein; TRAIL alone 27.2, Normal 3.86: 13.8%

B9: YF01M14 (Fc fusion)
chain: ITQQDLAPQQRAAPQQKRSSPSEGLCPPGHHLSESGRDCISCKYGQDYSNHWNHLLFCLRCTRCDSGEVELSPCTTTRNTVCQCEEGTFREENSPEMCRKCRTGCPRGMVKVGDCTPWSDIECVHKEEF[no letters for human IgG1 Fc]
[3]
  apoptosis rate (%) of Jurkat cells with 200 ng/ml TRAIL plus fusion protein; TRAIL alone 27.2, Normal 3.86: 13.6%
